Some of the results follow.
test system: T1, C. trachomatis L2/434/Bu expressing GFP (CTL2-GFP); design: species or system HeLa; C. trachomatis total inclusion area by high-content imaging, normalised to DMSO; settings: total inclusion area; 28.5 h, 10 µM; inhibitor
T1 construct: L2/434/Bu GFP intracellular growth in HeLa cells
Outline: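 Host cell viability was gauged from Hoechst-stained nuclei counts, while chlamydial growth was taken from total inclusion area and inclusion number per well. Cells were fixed and imaged by high-content microscopy once bulk GFP and resorufin fluorescence had been measured.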

SMILES	% of control remaining
Cc1ccc(C(=O)N2CCC(c3nn(C)c4ncccc34)CC2)s1 [CBK284988]	82.6833
COCc1nc(C(=O)Nc2ccc(NC(C)=O)cc2C(F)(F)F)cs1 [CBK306298]	64.3337
CNC(=S)Nc1ncn(Cc2cccc(F)c2)n1 [CBK288368]	68.382
Nc1ccccc1C(=O)NCc1ccncc1 [CBK057024]	82.1001
O=[N+]([O-])c1ccccc1OCCCn1c2ccccc2c2ccccc21 [CBK264799]	99.7779
O=C(CCSc1ccc(Cl)cc1)NCCc1ccccc1 [CBK263800]	109.306
COc1ccc2[nH]cc(CCNC(=O)/C=C/c3ccc(C(C)C)cc3)c2c1 [CBK149639]	50.917
Cc1nn(C)cc1CN(Cc1ccc(F)cc1)CC1CCCO1 (centres unmarked) [CBK282472]	122.201
Clc1ccc(OCCOc2nccnc2N2CCNCC2)cn1 [CBK014049G]	58.3469
COc1ccc([C@@]23CC[C@@H](NC(=O)c4ccc(-c5csnn5)cc4)C[C@@H]2N(C)CC3)cc1OC [CBK074256T]	113.795
Cn1cc(C(=O)N2CCCC(c3cc4ccccc4cn3)C2)cn1 (centres unmarked) [CBK285155]	66.3916
COc1cccc2c3c([nH]c12)C1(CCN(CCc2scnc2C)CC1)NCC3 [CBK040058]	74.4078
Cc1ccc(COC(CN2CCCCCC2)CN2CCCCCC2)cc1 [CBK278236C]	65.7658
COc1ccc(-c2cc(=O)[nH]c(SCC(=O)Nc3ccc(C)cc3)n2)cc1 [CBK091867]	102.716
CC(=O)Nc1ccc(S(=O)(=O)Nc2cccc(-c3cn4cccnc4n3)c2)cc1 [CBK269125]	91.1586
O=C1CC(Cl)Sc2sc3ccccc3c21 (centres unmarked) [CBK006551]	19.6914
COc1ccc([N+](=O)[O-])c(Sc2cccs2)n1 [CBK002625]	94.6023
COc1cc(-c2cnc(N)c(N3CCC[C@@H]3CO)n2)cc(OC)c1OC [CBK063478]	86.5249
O=C1N=C(Nc2cccc(C(=O)O)c2)S/C1=C/c1cccc(O)c1 [CBK264984]	100.054
O=C(Cc1cccnc1)N1CCC(O)(c2cccc(F)c2)CC1 [CBK283537]	83.6084
CC(=C\C(=O)O)/C(=C/c1ccncc1)C(=O)O [CBK278265N]	81.7939
Cc1cnc2[nH]c(C3CCCN(C(=O)c4cccnc4)C3)cc2c1 (centres unmarked) [CBK285168]	90.981
O=C(Nc1ccc(F)cc1)c1cccc(NS(=O)(=O)c2cc(Cl)sc2Cl)c1 [CBK038980]	87.8572
O=C(Nc1cc(Br)ccc1O)c1cnn2c(C(F)(F)F)cc(-c3cccs3)nc12 [CBK268190]	90.3105
Cc1c(C(=O)Nc2ccncc2)nnn1-c1cccc(C(F)(F)F)c1 [CBK107390]	57.5576
COc1ccc([C@@]23CC[C@@H](NC(=O)c4ccc(F)c(F)c4)C[C@@H]2CN(C)C3)cc1OC [CBK083504T]	109.963
COc1cc(CNC2CCCCC2)ccc1OCC(N)=O [CBK263866]	106.424

SMILES	% of control remaining
COc1cc(OC)c(NC(=O)C(C)Oc2cccc(C)c2)cc1Cl (centres unmarked) [CBK268646]	86.141
Cc1ccc(-c2nnc([C@H]3CCN(C(=O)NCc4ccccc4)C3)o2)cc1 [CBK289411]	94.5166
COCOc1ccc(-c2nccnc2OC2CCCCC2)cc1 [CBK106917]	107.578
CCCc1cc(C(=O)N2CCN(c3nccc(OC)n3)CC2)[nH]n1 [CBK304898]	18.5877
O=c1oc2ccccc2c(NCCCN2CCOCC2)c1[N+](=O)[O-] [CBK261471]	91.5627
Cc1cc(C)c2nc(-c3ccccn3)cc(C(=O)Nc3ccc(S(=O)(=O)Nc4cc(C)on4)cc3)c2c1 [CBK267779]	107.655
CC1CN(C(=O)c2ccccc2)CC(C)N1CCCCc1ccc(F)cc1 (centres unmarked) [CBK025019C]	73.3552
CN(C)CCCn1cnc2c1c(=O)[nH]c(=O)n2C [CBK287913]	83.1557
CN(C)Cc1ncccc1OCCO [CBK001411C]	102.348
CCOC(=O)c1ccccc1NS(=O)(=O)Cc1ccccc1[N+](=O)[O-] [CBK050594]	80.5247
COc1ccc(-c2nnc3ccc(SCc4ccccn4)nn23)cc1OC [CBK287528]	98.4848
Cc1nc2c(c(=O)[nH]1)CN(Cc1ccccc1F)CC2 [CBK283948]	107.649
COc1ccc(CCCC(=O)n2c(=O)n(CCc3c[nH]c4ccccc34)c3ccccc32)cc1 [CBK106514]	111.308
Nc1ccc(S(=O)(=O)c2ccc(-n3c(=O)c4cc5c(=O)n(-c6ccc(S(=O)(=O)c7ccc(N)cc7)cc6)c(=O)c5cc4c3=O)cc2)cc1 [CBK261490]	102.421
O=C(c1nc2ncccn2n1)N1CCc2ccccc2C1 [CBK288079]	89.5435
Cc1ccc(C)c(-n2nnnc2SC(C)C(=O)N2CCCC2)c1 (centres unmarked) [CBK295204]	98.5745
Cc1cccc(-c2noc([C@@H]3Cc4[nH]cnc4CN3C(=O)NC(C)C)n2)c1 [CBK288962]	109.657
CSc1nnc(-c2ccccc2[N+](=O)[O-])n1CC(C)C [CBK074959]	94.4165
O=C1c2ccccc2S(=O)(=O)N1CC(O)Cn1c2ccc(Cl)cc2c2cc(Cl)ccc21 (centres unmarked) [CBK262327]	95.4112
Cc1cccc(CN(CCCN)C(=O)Nc2ccc(C(C)(C)C)cc2)n1 [CBK033365C]	49.0721
CCOC(=O)c1sc2nc(C)cc(C)c2c1N [CBK097355]	120.228
O=C(COc1ccc(S(=O)(=O)NC2CCCCC2)cc1)Nc1ccc2c(c1)OCO2 [CBK265960]	88.839
COc1ccc(CCNC(=O)CN2CCCC2Cn2cccn2)cc1 (centres unmarked) [CBK306147]	78.4663
COc1cccc(-c2cncc(C3CCCN(Cc4ccc5[nH]ccc5c4)C3)n2)c1 (centres unmarked) [CBK286151]	112.898
COc1cccc(NC(=O)CCS(=O)(=O)c2ccccc2)c1 [CBK270150]	104.154
O=C(CC1Sc2ccccc2NC1=O)Nc1ccc(C(F)(F)F)cc1 (centres unmarked) [CBK287585]	91.7726
COc1ccc(C(=O)NCC(O)CN2CCOCC2)cc1[N+](=O)[O-] (centres unmarked) [CBK265643]	98.3656

SMILES	% of control remaining
CCNC(=O)Nc1ccc([C@@H](O)[C@H]2COCC(=O)N2CC)cc1 [CBK289696]	102.757
CC(c1ccc(Cl)cc1)N(CCN(C)C)c1ccccn1 (centres unmarked) [CBK012273F]	27.3317
O=C(NC[C@H]1O[C@@H](CC(=O)N2CCN(c3ccccn3)CC2)[C@H](O)[C@@H]1O)C1CC1 [CBK288904]	111.171
Nc1cc(=O)[nH]c(=O)n1Cc1ccc(Cl)cc1 [CBK288002]	98.4632
O=C(Oc1cccc2cccnc12)c1ccc(Br)o1 [CBK019461]	99.2699
COc1ccc(Cn2nc(NS(=O)(=O)c3ccc(-c4ccon4)s3)c3ccccc32)cc1 [CBK048031]	90.6572
COc1ccc(-c2cncc(C3CN(Cc4cccc5ncccc45)CCO3)n2)cc1 (centres unmarked) [CBK285947]	115.619
Cc1nccn1CC1(O)CCN(C(=O)Cc2cccc(F)c2)CC1 [CBK282184]	95.6066
Cc1ccc(OCc2cc(-c3ccco3)on2)c([N+](=O)[O-])n1 [CBK233261]	112.978
O=C(NC(Nc1ncccn1)C(Cl)(Cl)Cl)c1ccccc1 (centres unmarked) [CBK261408]	96.0194
O=S(=O)(/N=C(/NS(=O)(=O)c1cccc2ccccc12)c1ccccc1)c1ccccc1 [CBK263105]	97.1917
COc1ccc(-c2cnc(NS(C)(=O)=O)c(C(=O)NCc3ccco3)c2)cc1 [CBK076539]	75.0283
c1ccc(-c2nc3cnccn3c2Nc2ccc3c(c2)OCCO3)cc1 [CBK287857]	105.176
NC1CCN(c2nccnc2OCCOc2cccnc2)CC1 [CBK003889F]	96.6991
COc1cccc(NC(=O)NCCc2ccncc2)c1 [CBK270022]	69.8923
CCNC(=O)Nc1ccc(-c2ccc(SC)cc2)c2ccccc12 [CBK083723]	98.1486
O=C(O)COCC(=O)NC12CC3CC(CC(C3)C1)C2 [CBK287065]	78.5986
O=C1CCCCCN1CP(=O)(O)CCc1ccccc1 [CBK262313]	97.9736
CN1CC(=O)N2CCOC(C2)c2cccc(n2)NC(=O)C/C=C/CC2(CCN(c3ncccn3)CC2)C1=O (centres unmarked) [CBK292188]	100.532
O=S(=O)(Nc1ccc2nsnc2c1)c1cccc(C(F)(F)F)c1 [CBK062221]	99.6189
Cn1cc(NC(=O)c2ccc(COc3c(F)c(F)cc(F)c3F)o2)c(C(=O)O)n1 [CBK287014]	98.2316
Cc1nc(CCNC(=O)C2CCN(C(=O)c3ccc(F)cc3)CC2)cs1 [CBK304378]	50.4595
CCN1CCOC(CNc2nc(-c3ccncc3)nc3c2CCC3)C1 (centres unmarked) [CBK306215]	70.5436
Cc1c(C(=O)NCCCCn2ccnc2)[nH]c2ccccc12 [CBK283246]	71.2935
Cc1nonc1NC(=O)CN1CCCC1 [CBK261840]	103.33
Cc1ccc(Cl)c(NC(=O)NCCN2CCN(c3ccccc3[N+](=O)[O-])CC2)c1 [CBK267293]	97.9073

Source: PMC12040169 (PLOS Biology, 2025)
